{
  "source": "the supplement of paper PMC8728848",
  "binders": {"B1": {"name": "Clec49 (Caenorhabditis elegans) (protein)", "chain": "MTRLTLLLFGLLGAATAQTCNTGGIYNEQFNRCYQYFTAPAQFSFAEQQCNLLGGHLASVQNGQENALLQSNAANSFKRSNYSDYWIGATDLETSGTWKWTDPSVTFDYSNWQLGEPQSGSDCAIQDKGDGTWSAIGCTSYRPYVCVTPVIMTATCPPITTPIPTTCPTPAPCPIKQCVPSCDQGWTYFSPTDFCYRVYHGEKFNDAEASCVLLGGHLASIHSLTENTFVNNIASCGIKEGKYEHLAWIGMRKVGQDWVWTDGTPSDYFNWAPKQPDNPKKELCVQTAPDLSHDKWYENWNNLECNEVMRAYICKKASIHN"}},
  "assay_in_all_cases": "glycan array binding signal (z-score within array); higher = stronger binding",
  "settings_in_all_cases": "glycan notation: IUPAC condensed, linker removed",
  "key": {"Fuc(a1-2)Gal": {"biological_target": "Fuc(a1-2)Gal", "method_in_brief": "(§1)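 The Consortium for Functional Glycomics database supplied 3228 glycan arrays, of which those lacking an available protein sequence were dropped. The binding signal, a within-array Z-score, was averaged across arrays of the same protein sequence and across linkers. Negative scores can be read as non-binding.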"}, "Fuc(a1-2)Gal(b1-3)GalNAc": {"biological_target": "Fuc(a1-2)Gal(b1-3)GalNAc", "method_in_brief": "as §1"}, "[1]": {"biological_target": "Fuc(a1-2)Gal(b1-3)GalNAc(a1-3)[Fuc(a1-2)]Gal(b1-4)Glc", "method_in_brief": "as §1"}, "[2]": {"biological_target": "Fuc(a1-2)Gal(b1-3)GalNAc(a1-3)[Fuc(a1-2)]Gal(b1-4)GlcNAc", "method_in_brief": "as §1"}, "[3]": {"biological_target": "Fuc(a1-2)Gal(b1-3)GalNAc(b1-3)Gal", "method_in_brief": "as §1"}, "[4]": {"biological_target": "Fuc(a1-2)Gal(b1-3)GalNAc(b1-3)Gal(a1-4)Gal(b1-4)Glc", "method_in_brief": "as §1"}, "[5]": {"biological_target": "Fuc(a1-2)Gal(b1-3)GalNAc(b1-4)[Neu5Ac(a2-3)]Gal(b1-4)Glc", "method_in_brief": "as §1"}, "Fuc(a1-2)Gal(b1-3)GlcNAc": {"biological_target": "Fuc(a1-2)Gal(b1-3)GlcNAc", "method_in_brief": "as §1"}, "[6]": {"biological_target": "Fuc(a1-2)Gal(b1-3)GlcNAc(b1-2)Man(a1-3)[Fuc(a1-2)Gal(b1-3)GlcNAc(b1-2)Man(a1-6)]Man(b1-4)GlcNAc(b1-4)GlcNAc", "method_in_brief": "as §1"}, "[7]": {"biological_target": "Fuc(a1-2)Gal(b1-3)GlcNAc(b1-2)Man(a1-3)[Fuc(a1-2)Gal(b1-3)GlcNAc(b1-2)Man(a1-6)]Man(b1-4)GlcNAc(b1-4)[Fuc(a1-6)]GlcNAc", "method_in_brief": "as §1"}, "[8]": {"biological_target": "Fuc(a1-2)Gal(b1-3)GlcNAc(b1-3)Gal(b1-4)Glc", "method_in_brief": "as §1"}, "[9]": {"biological_target": "Fuc(a1-2)Gal(b1-3)GlcNAc(b1-3)GalNAc", "method_in_brief": "as §1"}, "[10]": {"biological_target": "Fuc(a1-2)Gal(b1-3)GlcNAc(b1-3)[Fuc(a1-2)Gal(b1-3)GlcNAc(b1-6)]GalNAc", "method_in_brief": "as §1"}, "[11]": {"biological_target": "Fuc(a1-2)Gal(b1-3)GlcNAc(b1-3)[Gal(b1-4)GlcNAc(b1-6)]Gal(b1-4)Glc", "method_in_brief": "as §1"}, "[12]": {"biological_target": "Fuc(a1-2)Gal(b1-3)GlcNAc(b1-3)[Neu5Ac(a2-6)Gal(b1-4)GlcNAc(b1-6)]Gal(b1-4)Glc", "method_in_brief": "as §1"}, "[13]": {"biological_target": "Fuc(a1-2)Gal(b1-3)GlcNAc6S", "method_in_brief": "as §1"}, "[14]": {"biological_target": "Fuc(a1-2)Gal(b1-3)[Fuc(a1-4)]GlcNAc", "method_in_brief": "as §1"}, "[15]": {"biological_target": "Fuc(a1-2)Gal(b1-3)[Fuc(a1-4)]GlcNAc(b1-2)Man(a1-3)[Fuc(a1-2)Gal(b1-3)[Fuc(a1-4)]GlcNAc(b1-2)Man(a1-3)]Man(b1-4)GlcNAc(b1-4)GlcNAc", "method_in_brief": "as §1"}, "[16]": {"biological_target": "Fuc(a1-2)Gal(b1-3)[Fuc(a1-4)]GlcNAc(b1-2)Man(a1-3)[Fuc(a1-2)Gal(b1-3)[Fuc(a1-4)]GlcNAc(b1-2)Man(a1-6)]Man(b1-4)GlcNAc(b1-4)[Fuc(a1-6)]GlcNAc(b1-4)[Fuc(a1-6)]GlcNAc", "method_in_brief": "as §1"}, "[17]": {"biological_target": "Fuc(a1-2)Gal(b1-3)[Fuc(a1-4)]GlcNAc(b1-3)[Fuc(a1-3)[Gal(b1-4)]GlcNAc(b1-6)]Gal(b1-4)Glc", "method_in_brief": "as §1"}, "[18]": {"biological_target": "Fuc(a1-2)Gal(b1-3)[Fuc(a1-4)]GlcNAc(b1-3)[Gal(b1-4)GlcNAc(b1-6)]Gal(b1-4)Glc", "method_in_brief": "as §1"}, "Fuc(a1-2)Gal(b1-4)Glc": {"biological_target": "Fuc(a1-2)Gal(b1-4)Glc", "method_in_brief": "as §1"}, "Fuc(a1-2)Gal(b1-4)Glc6S": {"biological_target": "Fuc(a1-2)Gal(b1-4)Glc6S", "method_in_brief": "as §1"}, "Fuc(a1-2)Gal(b1-4)GlcNAc": {"biological_target": "Fuc(a1-2)Gal(b1-4)GlcNAc", "method_in_brief": "as §1"}, "[19]": {"biological_target": "Fuc(a1-2)Gal(b1-4)GlcNAc(b1-2)Man", "method_in_brief": "as §1"}, "[20]": {"biological_target": "Fuc(a1-2)Gal(b1-4)GlcNAc(b1-2)Man(a1-3)[Fuc(a1-2)Gal(b1-4)GlcNAc(b1-2)Man(a1-6)]Man(b1-4)GlcNAc(b1-4)GlcNAc", "method_in_brief": "as §1"}, "[21]": {"biological_target": "Fuc(a1-2)Gal(b1-4)GlcNAc(b1-2)Man(a1-3)[Fuc(a1-2)Gal(b1-4)GlcNAc(b1-2)Man(a1-6)]Man(b1-4)GlcNAc(b1-4)[Fuc(a1-6)]GlcNAc", "method_in_brief": "as §1"}, "[22]": {"biological_target": "Fuc(a1-2)Gal(b1-4)GlcNAc(b1-2)[Fuc(a1-2)Gal(b1-4)GlcNAc(b1-4)]Man(a1-3)[Fuc(a1-2)Gal(b1-4)GlcNAc(b1-2)Man(a1-6)]Man(b1-4)GlcNAc(b1-4)GlcNAc", "method_in_brief": "as §1"}, "[23]": {"biological_target": "Fuc(a1-2)Gal(b1-4)GlcNAc(b1-3)Gal(b1-4)GlcNAc", "method_in_brief": "as §1"}, "[24]": {"biological_target": "Fuc(a1-2)Gal(b1-4)GlcNAc(b1-3)Gal(b1-4)GlcNAc(b1-2)Man(a1-3)[Fuc(a1-2)Gal(b1-4)GlcNAc(b1-3)Gal(b1-4)GlcNAc(b1-2)Man(a1-6)]Man(b1-4)GlcNAc(b1-4)GlcNAc", "method_in_brief": "as §1"}},
  "note": "This is one part of the list.",
  "data": [
    {"binder": "B1", "values": [
      {"measurement": "glycan array binding signal (z-score)", "setting": "Fuc(a1-2)Gal", "result": -0.075},
      {"measurement": "glycan array binding signal (z-score)", "setting": "Fuc(a1-2)Gal(b1-3)GalNAc", "result": -0.662},
      {"measurement": "glycan array binding signal (z-score)", "setting": "[1]", "result": 0.087},
      {"measurement": "glycan array binding signal (z-score)", "setting": "[2]", "result": -0.49},
      {"measurement": "glycan array binding signal (z-score)", "setting": "[3]", "result": -0.69},
      {"measurement": "glycan array binding signal (z-score)", "setting": "[4]", "result": -0.229},
      {"measurement": "glycan array binding signal (z-score)", "setting": "[5]", "result": -0.798},
      {"measurement": "glycan array binding signal (z-score)", "setting": "Fuc(a1-2)Gal(b1-3)GlcNAc", "result": -0.244},
      {"measurement": "glycan array binding signal (z-score)", "setting": "[6]", "result": 1.97},
      {"measurement": "glycan array binding signal (z-score)", "setting": "[7]", "result": -0.114},
      {"measurement": "glycan array binding signal (z-score)", "setting": "[8]", "result": -0.721},
      {"measurement": "glycan array binding signal (z-score)", "setting": "[9]", "result": -0.025},
      {"measurement": "glycan array binding signal (z-score)", "setting": "[10]", "result": -0.2},
      {"measurement": "glycan array binding signal (z-score)", "setting": "[11]", "result": 0.231},
      {"measurement": "glycan array binding signal (z-score)", "setting": "[12]", "result": -0.627},
      {"measurement": "glycan array binding signal (z-score)", "setting": "[13]", "result": -0.559},
      {"measurement": "glycan array binding signal (z-score)", "setting": "[14]", "result": -0.335},
      {"measurement": "glycan array binding signal (z-score)", "setting": "[15]", "result": 0.844},
      {"measurement": "glycan array binding signal (z-score)", "setting": "[16]", "result": 0.548},
      {"measurement": "glycan array binding signal (z-score)", "setting": "[17]", "result": -0.463},
      {"measurement": "glycan array binding signal (z-score)", "setting": "[18]", "result": 0.21},
      {"measurement": "glycan array binding signal (z-score)", "setting": "Fuc(a1-2)Gal(b1-4)Glc", "result": -1.05},
      {"measurement": "glycan array binding signal (z-score)", "setting": "Fuc(a1-2)Gal(b1-4)Glc6S", "result": 0.229},
      {"measurement": "glycan array binding signal (z-score)", "setting": "Fuc(a1-2)Gal(b1-4)GlcNAc", "result": -0.203},
      {"measurement": "glycan array binding signal (z-score)", "setting": "[19]", "result": -0.406},
      {"measurement": "glycan array binding signal (z-score)", "setting": "[20]", "result": 1.29},
      {"measurement": "glycan array binding signal (z-score)", "setting": "[21]", "result": 0.612},
      {"measurement": "glycan array binding signal (z-score)", "setting": "[22]", "result": -0.032},
      {"measurement": "glycan array binding signal (z-score)", "setting": "[23]", "result": -0.957},
      {"measurement": "glycan array binding signal (z-score)", "setting": "[24]", "result": -0.03}
    ]}
  ]
}
